In PubChem BioAssay AID1347073 (National Center for Advancing Translational Sciences (NCATS), 2019):
The campaign covered roughly 45,000 compounds. About 200 (0.44%) were called active. Inconclusive results (about 7%) are left out. Calls follow the shape of the dose curve; as a rule, active = well fitted activation curve with a large enough effect; inconclusive = small, poorly fitted or top-dose-only effect; inactive = no such curve, though single readings can be large or run the other way. This is one part of the list.

Assay: qHTS of TDP-43 Inhibitors: NCGC Sytravon Library Screen; also: 0% is about no effect; nearly all actives have a fitted effect of over 55% in size
Conditions: yeast TDP-43 toxicity rescue, BacTiter-Glo growth, 24 h; series mostly up to 46.1 µM; growth rescue (activation): at the top concentration
In short: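 TDP-43-expressing yeast, pregrown in raffinose, seeded at OD600 0.02 in galactose medium with compound for 24 hr at 30 deg C. Growth read by BacTiter-Glo luminescence, so rescue of toxicity appears as activation.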

| Compound | growth rescue (activation) |
| --- | --- |
| O=C(NCCN1C(=O)S/C(=C\c2ccccc2F)C1=O)C1CCCN1C(=O)c1cccs1 (configuration not stated) | inactive: -7.29% |
| CCCC(C)c1nnc(NC(=O)C2CC(=O)N(CCc3ccc(F)cc3)C2)s1 (configuration not stated) | inactive: -14.8% |
| CN(CC(=O)Nc1cccc(S(=O)(=O)NC2=NCCCCC2)c1)Cc1ccc(C(C)(C)C)cc1 | inactive: -2.73% |
| CCN(C(=O)COc1ccc(N(C)S(=O)(=O)c2ccc(NC(C)=O)cc2)cc1)C1CCCCC1 | inactive: 8.07% |
| Cc1nnc(NC(=O)CSc2nnc(-c3ccco3)o2)s1 | inactive: 1.47% |
| O=C(NCc1cccc(C(F)(F)F)c1)c1csc([C@@H]2C[C@H](O)[C@@H](CO)O2)n1 | inactive: 2.44% |
| CS(=O)(=O)N(CC(=O)NCc1ccco1)c1ccc(Cl)cc1Cl | inactive: -1.95% |
| O=C(COC(=O)c1c2c(nc3ccccc13)/C(=C/c1cccc([N+](=O)[O-])c1)CCC2)NC1CCS(=O)(=O)C1 (configuration not stated) | inactive: 0.331% |
| O=C(O)c1occc1CSc1ccccc1 | inactive: 17% |
| CC1(C)[C@H]2CC=C(CN3CCC(N4CCC(C(=O)N5CCCC5)CC4)CC3)[C@@H]1C2 | inactive: -2.08% |
| CCCCCOc1ccc(C(=O)CCC(=O)NC(C)c2ccc(S(N)(=O)=O)cc2)cc1 (configuration not stated) | inactive: 8.02% |
| CCc1nnc(NC(=O)CCNC(=O)c2ccco2)s1 | inactive: -16.9% |
| CCc1nc2c(OCC3CCCCC3)cccn2c1N(C)C(=O)c1ccc(OC)cc1 | inactive: -4.63% |
| Cc1ccc(S(=O)(=O)NCC(=O)NCC(=O)OCC(=O)N2CC(=O)Nc3ccccc32)cc1C | inactive: 0.107% |
| COCCCNC(=S)N1CCN(C(=O)C(=O)Nc2ccc(C(=O)OC)cc2)CC1 | inactive: 17.5% |
| CCCS(=O)(=O)Nc1ccc2cn[nH]c2c1 | inactive: 11.4% |
| CCN(CC)S(=O)(=O)c1cccc(C(=O)Nc2ccc3c(c2)OCO3)c1 | inactive: 20.7% |
| COc1cc(C(O)c2nc(-c3ccc(N(C)C)cc3)cs2)ccc1F (configuration not stated) | inactive: 18.4% |
| Cc1ccccc1NC(=O)C1CCCN(S(=O)(=O)c2ccc(-n3cnnn3)cc2)C1 (configuration not stated) | inactive: -0.366% |
| CC1CN(c2oc(-c3ccco3)nc2C#N)CC(C)O1 (configuration not stated) | inactive: 6.54% |
| O=C(Nc1ccc(F)cc1)C(c1ccccc1)N1CCN(S(=O)(=O)c2c(F)cccc2F)CC1 (configuration not stated) | inactive: 12% |
| Cc1nn(CC(=O)O)c(C)c1N | inactive: 28.5% |
| N=C1/C(=C\c2ccc(SCc3ccco3)o2)C(=O)N=C2SC=NN12 | inactive: 11.2% |
| Cc1ccc2c(c1)N(Cc1cccc(C#N)c1)C=NS2(=O)=O | inactive: -13.1% |
| Cc1cc(C)cc(NC(=O)CSc2cc(C(=O)c3nccn3C)c3ccccc3n2)c1 | inactive: 9.91% |
| O=C(Oc1ccc(Cl)c2cccnc12)C12CC3CC(CC(C3)C1)C2 | inactive: 26.3% |

| Compound | growth rescue (activation) |
| --- | --- |
| CCc1ccc(N(CC(=O)NC2CCCC2)C(=O)CCC(=O)Nc2cc(C)on2)cc1 | inactive: 15.5% |
| Cc1ccc(CN2CCCC(CO)(Cc3ccccc3C)C2)s1 (configuration not stated) | inactive: -6.45% |
| Cc1ccc(CNC(=O)C(CC(C)C)OC(=O)c2ccco2)cc1 (configuration not stated) | inactive: 12.1% |
| CC(C)(C)CC(=O)Nc1ccc(S(=O)(=O)NC2=NCCCCC2)cc1 | inactive: 1.58% |
| Cc1csc(NC(=O)c2ccc(N3CCCC3=O)cc2)n1 | inactive: -18.9% |
| CCOC(=O)N1CCN(C(=O)C2CCN(C(=O)Nc3ccccc3)CC2)CC1 | inactive: 0.839% |
| C/C(=N/NC(=O)c1cccs1)c1cccc(N)c1 | inactive: 15.4% |
| N#C/C(=C(/O)c1ccc([N+](=O)[O-])cc1)c1nnc2n1CCCCC2 | inactive: -10.8% |
| CCc1cccc(CC)c1NC(=O)CSc1nnc(C2CC2)n1C | inactive: 0.263% |
| COc1cc(NC(=O)N2CCc3nc(NCc4cccc(Oc5ccccc5)c4)ncc3C2)cc(OC)c1OC | inactive: 22.5% |
| COC(=O)C(C)Oc1cc(OC(C)C(=O)OC)c2c(C)c(Cl)c(=O)oc2c1 (configuration not stated) | inactive: 12.9% |
| C#CCN1C(=O)S/C(=C/C=C/c2ccc(N(C)C)cc2)C1=O | inactive: 5.71% |
| Nc1nc(CSc2nnc(-c3cccc(F)c3)n2-c2ccccc2)nc(N2CCOCC2)n1 | inactive: 0.621% |
| Cc1ccc(-n2nc(CC#N)c(C#N)c2N)cc1 | inactive: 4.11% |
| O=C1CCN(C2CCN(Cc3nc(Cc4ccccc4F)no3)CC2)CCN1 | inactive: -9.47% |
| COC(=O)c1cc(CSc2nc3ccc(C)cc3[nH]2)oc1C | inactive: 10.8% |
| Cc1ccc2c(c1)N(C)/C(=C/c1cccc[n+]1C)S2 | inactive: -3.54% |
| COc1ccc2c(c1)[nH]c1c(=O)n(CCN3CCOCC3)cnc12 | inactive: 12.9% |
| CC1(C(=O)NCc2ccco2)Cc2c(-c3cccc(C(F)(F)F)c3)ccnc2O1 (configuration not stated) | inactive: 8.27% |
| COc1ccc(N2C(=O)C(CC(=O)Nc3ccccc3)N(CCc3ccc(OC)c(OC)c3)C2=O)cc1 (configuration not stated) | inactive: -0.913% |
| COc1cc(/C=N/N=C2/NC(=O)C(CC(=O)O)S2)ccc1OCc1ccc(Cl)cc1 (configuration not stated) | inactive: -9.79% |
| Cc1ccc(NC(=O)COC(=O)CCNS(=O)(=O)c2c(Cl)cccc2Cl)cc1 | inactive: -20.2% |
| CCCCN(C(=O)CSc1nc2ccccc2s1)c1c(N)n(CCCC)c(=O)[nH]c1=O | inactive: 22.7% |
| C/C(=N\OC(=O)c1c(-c2c(F)cccc2Cl)noc1C)c1nccs1 | inactive: 6.52% |
| Cc1ccc(-c2n[nH]c(=O)c3ccccc23)cc1S(=O)(=O)Nc1ccc(F)cc1 | inactive: 26.6% |
| C=CCn1c(O)c(/C=C2\C=NN=C2c2ccccc2)sc1=S | inactive: 3.46% |
